# Screen size: about 310,000 compounds; about 2,200 (0.71%) showed an effect of 50% or more. The effect is printed as a negative number. The list shows a part of the results.
# Target: human ether-à-go-go-related gene (hERG) potassium channel (human, UniProt Q12809)
# Experiment: primary screen, population patch clamp on CHO cells stably expressing hERG
# human ether-à-go-go-related gene (hERG) potassium channel, sequence (Q12809 whole entry, looked up): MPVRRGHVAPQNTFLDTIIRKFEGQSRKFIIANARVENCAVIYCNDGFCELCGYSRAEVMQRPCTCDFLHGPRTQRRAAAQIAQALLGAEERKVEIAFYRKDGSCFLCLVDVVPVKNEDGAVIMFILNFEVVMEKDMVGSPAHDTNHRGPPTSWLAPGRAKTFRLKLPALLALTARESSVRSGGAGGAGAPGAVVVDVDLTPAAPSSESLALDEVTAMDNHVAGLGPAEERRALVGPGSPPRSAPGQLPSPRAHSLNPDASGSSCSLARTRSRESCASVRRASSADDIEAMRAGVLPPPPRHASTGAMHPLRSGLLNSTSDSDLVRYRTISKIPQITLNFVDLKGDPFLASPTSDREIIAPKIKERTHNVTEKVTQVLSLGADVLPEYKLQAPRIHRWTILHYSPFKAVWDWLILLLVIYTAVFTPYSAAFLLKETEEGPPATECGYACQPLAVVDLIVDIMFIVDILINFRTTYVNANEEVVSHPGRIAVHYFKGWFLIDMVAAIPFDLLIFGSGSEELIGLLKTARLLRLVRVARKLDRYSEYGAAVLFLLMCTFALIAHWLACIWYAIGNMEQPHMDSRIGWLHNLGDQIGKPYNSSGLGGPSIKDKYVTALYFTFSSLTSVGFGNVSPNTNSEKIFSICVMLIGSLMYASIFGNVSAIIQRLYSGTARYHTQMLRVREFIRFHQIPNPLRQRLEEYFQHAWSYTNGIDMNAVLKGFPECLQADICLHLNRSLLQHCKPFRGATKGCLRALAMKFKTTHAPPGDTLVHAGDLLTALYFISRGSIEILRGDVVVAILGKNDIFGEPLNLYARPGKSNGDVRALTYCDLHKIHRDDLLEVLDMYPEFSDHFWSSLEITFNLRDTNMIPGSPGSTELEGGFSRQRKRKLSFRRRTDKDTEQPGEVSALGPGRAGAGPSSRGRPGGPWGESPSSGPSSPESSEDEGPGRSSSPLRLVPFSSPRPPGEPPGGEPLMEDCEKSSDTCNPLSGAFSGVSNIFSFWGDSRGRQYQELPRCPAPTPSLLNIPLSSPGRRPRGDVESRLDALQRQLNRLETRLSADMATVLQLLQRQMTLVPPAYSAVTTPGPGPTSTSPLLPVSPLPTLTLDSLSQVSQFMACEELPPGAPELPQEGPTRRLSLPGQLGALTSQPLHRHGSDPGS
row,SMILES,"hERG current change (%, negative = inhibition) at 1uM [%]"
1,COc1ccc(-c2cc(C(=O)N3CCN(c4ncccn4)CC3)c3ccccc3n2)c(OC)c1,13.8
2,COc1ccc(CCC(=O)N2CCN(c3ccc([N+](=O)[O-])cc3)CC2)cc1OC,-76.1
3,CC(C)n1c(C(=O)OCC(=O)NCc2ccc3c(c2)OCO3)cc2occc21,6.07
4,O=C(CCC(=O)Nc1nnc(C2CCCCC2)s1)NCc1ccc(F)cc1,13.9
5,CCOc1cc(CNCc2cccnc2)ccc1OCC(=O)NC(C)(C)C.Cl,7.42
6,Cn1c(CCNC(=O)c2ccccc2F)nnc1SCc1nc2ccccc2c(=O)[nH]1,11.4
7,CC(C)CN(C(=O)C1CSC2(C)CCC(=O)N12)c1c(N)n(Cc2ccccc2)c(=O)[nH]c1=O (stereo not shown),-3.96
8,CNC(=O)Nc1cccc(-c2cc(-c3c(Cl)cccc3Cl)no2)c1,16.3
9,COc1ccc(-c2cc(C(=O)Nc3c(Cl)cc(Cl)cc3Cl)c3ccccc3n2)cc1OC,4.23
10,Cn1c(Cn2c(=O)sc3ccccc32)nnc1SCC(=O)NCc1ccc(F)cc1,12.5
11,COc1ccc(OC)c(S(=O)(=O)N2CCC(C(=O)NCc3ccccn3)CC2)c1,15.1
12,CCc1ccc(NC(=O)CN(CC(=O)Nc2ccc(CC)cc2)CC(C)O)cc1 (stereo not shown),22.6
13,Cc1ccc(S(=O)(=O)N(C)CC(=O)Nc2cccc3c2CCCC3)cc1,3.05
14,CCOC(=O)c1c(C)[nH]c(C)c1C(=O)COC(=O)c1ccc(Cl)c(S(N)(=O)=O)c1,5.74
15,O=C(Cn1c(-c2ccccc2)noc1=O)NCc1ccccc1,11.7
16,COc1cccc(OCCOc2cccc(/C=N/n3cnnc3)c2)c1,8.1
17,O=c1cc(-c2ccccc2)[nH][nH]1,2.02
18,CO[C@H]1/C=C/O[C@@]2(C)Oc3c(C)c(O)c4c(O)c(c(C=NN5CCN(C)CC5)c(O)c4c3C2=O)NC(=O)/C(C)=C\C=C\[C@H](C)[C@H](O)[C@@H](C)[C@@H](O)[C@@H](C)[C@H](OC(C)=O)[C@@H]1C,9.29
19,COc1ccccc1CNS(=O)(=O)c1csc(C(N)=O)c1,17
20,Cc1cc(C)nc(SCC(=O)N2CCCCC2)n1,-0.525
21,O=C(NNC(=O)c1cc([N+](=O)[O-])ccc1Cl)c1cccs1,13
22,COCCN1CCN(C(=O)C2CCC(=O)N(CCCc3ccccc3)C2)CC1 (stereo not shown),8.26

row,SMILES,"hERG current change (%, negative = inhibition) at 1uM [%]"
1,CC(C)CCNC(=O)CN(C(=O)CCC(=O)Nc1nccs1)c1ccc2c(c1)OCCO2,5.52
2,Cc1nc(-c2ccc(C(=O)Nc3cccc(Br)c3)cc2)cs1,3.25
3,Cn1c(O)c(/C=N/c2ncccn2)c(=O)n(C)c1=O,-3.57
4,CCN1CCN(C(=O)c2ccc(C)c(S(=O)(=O)Nc3cccc(C)c3)c2)CC1,-1.83
5,O=C(NNc1cccc(Cl)n1)Nc1cccc(Cl)c1,3.48
6,COc1ccc(/C=N/NC(=O)c2cccc(NC(=O)c3ccccc3Cl)c2)c(OC)c1,12.5
7,O=C(N/C(=C\c1ccccc1Cl)C(=O)N1CCOCC1)c1ccc([N+](=O)[O-])cc1,-31.6
8,COc1ccc(C(CC(=O)NCc2ccccc2)Sc2n[nH]c(-c3ccccc3)n2)cc1 (stereo not shown),10.2
9,CSc1nnc2c3cc(F)ccc3n(C)c2n1,13.7
10,CC(=O)Oc1ccc2c(=O)c(-c3nc4ccccc4s3)coc2c1,10.9
11,C/C(=N\N(C)C)c1ccc(OCCOc2ccc([N+](=O)[O-])cc2)cc1,5.48
12,NC(=O)C1CCN(C(=S)NC2CC3C=CC2C3)CC1 (stereo not shown),14.2
13,COc1ccc(N2CCN(C(=S)NCc3ccc(C)cc3)CC2)cc1,10.1
14,COc1ccc(C)cc1NC(=O)CN(C)C1CCCCC1,2.87
15,CCOc1ccccc1OCCCC(=O)N(C)CC(=O)Nc1cc(C)ccc1C,6.85
16,O=CN1CCN(C(=O)Cc2ccc([N+](=O)[O-])cc2)CC1,7.36
17,CCCCSc1nn[nH]n1,10.1
18,C[C@H]1C(=O)N(C)CCN1C(=O)c1ccccc1OC1CCN(S(C)(=O)=O)CC1,8.87
19,COc1cccc(C2CC(c3cccs3)=NN2C(=O)CSC2=NCCS2)c1OC (stereo not shown),-2.75
20,O=C(c1ccc(F)cc1)N1CCN(S(=O)(=O)c2ccc(Br)cc2)CC1,6.38
21,COc1ccc(NC(=O)c2ccc3c(=O)n4c(nc3c2)CCCCC4)cc1,-1.91
22,Cc1ccc(SCC(=O)O/N=C(\N)c2cccnc2)cc1,5.43

row,SMILES,"hERG current change (%, negative = inhibition) at 1uM [%]"
1,Cc1ccc(OC(=O)c2cccc(S(=O)(=O)N(C)C)c2)c(-n2nc3ccccc3n2)c1,4.39
2,C=C[C@@H]1c2ccccc2N(S(=O)(=O)c2ccc(C)cc2)[C@H](c2ccc(OC(C)=O)cc2)C1(C#N)C#N,20.1
3,CC1(NC(=S)Nc2ccc(NC(=S)NC3(C)CCS(=O)(=O)C3)cc2)CCS(=O)(=O)C1 (stereo not shown),8.16
4,O=C(COc1ccccc1F)NC1CC1,4.15
5,Cc1c(Br)ccc(NC(=O)c2ccccc2[N+](=O)[O-])c1C,11.2
6,O=C(c1nc2ncccn2n1)N1CCc2ccccc2C1,0.39
7,COCc1nnc(NS(=O)(=O)c2ccc(C)cc2)s1,19.6
8,CCOC(=O)N1CCN(Cc2cc(=O)oc3ccc4ccccc4c23)CC1,13.8
9,CCn1c(N2CCN(S(=O)(=O)c3ccc(F)cc3)CC2)nc2ccccc21,-11.7
10,Cc1ccc(C2C=C(c3ccccc3)Nc3ncnn32)cc1 (stereo not shown),-9.4
11,COc1ccc(NC(=O)CC2C(=O)N(CCc3ccccc3)C(=S)N2Cc2cccnc2)cc1 (stereo not shown),-8.7
12,CN=C(Nc1ccc(C(=O)OC)s1)c1ccccc1,3
13,O=C1/C(=C/c2ccccc2Cl)SC(=S)N1CCC(=O)N1CCCCC1CCO (stereo not shown),4.17
14,COc1cc(/C=C(\C#N)C(=O)Nc2ccccn2)ccc1O,10.7
15,Cc1ccc(S(=O)(=O)N2CCN(C(=O)CSc3nc4ccccc4c(=O)[nH]3)CC2)c(C)c1,11.6
16,CCCn1nc2cc(C(=O)NCc3ccc(C)cc3)ccc2c1OC,5.99
17,O=C1CCN(Cc2nnnn2CC2CCCO2)c2ccccc2N1 (stereo not shown),8.7
18,COC(=O)c1cc(OC)c(OC)cc1NC(=O)CSc1nnnn1Cc1ccccc1,6.4
19,Cc1ccc(C)c(NC(=O)c2ccc3c(c2)N(Cc2ccc(F)cc2)C(=O)CS3=O)c1 (stereo not shown),4.87
20,S=c1[nH]c(-c2ccccc2)cn1/N=C/c1cccs1,11.4
21,CC(=O)c1cc(C)ccc1OC(=O)CCN1C(=O)C2C3c4ccccc4C(c4ccccc43)C2C1=O (stereo not shown),-10.9
22,Cc1cccc(NC(=O)C2CCCN2C(=O)Oc2ccccc2)c1C (stereo not shown),1.21

row,SMILES,"hERG current change (%, negative = inhibition) at 1uM [%]"
1,C/C=C(/C)C(=O)Nc1cccc(C2=NOC3(C2)C[C@@H](C(N)=O)N(C(=O)CC)C3)c1 (stereo partly shown),7.9
2,CC(C)c1cc(C(=O)N/N=C/c2ccoc2)c(O)c(C(C)C)c1,10.4
3,COc1cc(C2NC(=O)NC(c3ccccc3)=C2C(C)=O)c(Br)c(Br)c1O (stereo not shown),16.8
4,CCc1ccc2nc(NC(=O)C3CSC4(C)CCC(=O)N34)sc2c1 (stereo not shown),-10.5
5,O=C(c1ccco1)N1CCCC(c2nc(-c3ccc(S(=O)(=O)NCc4ccccc4)cc3)no2)C1 (stereo not shown),2
6,COc1ccc(S(=O)(=O)/N=C2\C=C(Nc3ccc(O)cc3)C(=O)c3ccccc32)cc1,2.25
7,CN(C)CCNC(=O)C(=O)NCC1OCCN1S(=O)(=O)c1cc(F)ccc1F (stereo not shown),10.9
8,C[C@H](NC(=O)c1ccc2c(c1)OCO2)c1nnc2ccccn12,7.68
9,COCCCN1C(=O)c2ccc(C(=O)OCC(=O)NCCc3ccccc3)cc2C1=O,10.1
10,Cc1cccc(C)c1OCc1cc(C(=O)N2CCN(c3ccc(F)cc3)CC2)no1,10.9
11,O=C(Cc1c(F)cccc1Cl)Nc1ccccc1C(=O)N1CCOCC1,7.79
12,CSCCC(NC(N)=O)C(=O)NCc1ccc(Cl)cc1 (stereo not shown),8.54
13,Cn1c(C(=O)N2CCC(C(=O)N3CCOCC3)CC2)cc2sccc21,9.54
14,CCCNC(=O)c1n[nH]c2c1CC(C(C)(C)CC)CC2 (stereo not shown),14
15,Cc1noc(C)c1CSCC(=O)Nc1nc2ccc(S(C)(=O)=O)cc2s1,22.5
16,Cc1ccc(NC(=O)CSc2nnc(Cc3ccccc3)c(=O)[nH]2)c(C)c1,-6.8
17,Cc1ccc(CNC(=O)C2CCN(c3nc(C)cc(C)n3)CC2)cc1,8.85
18,CC(=O)c1cc2c(cc1NC(=O)C1CCC1)OCO2,17.3
19,Clc1ccc(OCC#CCN2CCCC2)cc1.O=C(O)C(=O)O,6.95

# From article PMC4336329 (PLoS ONE, 2015)
